Test results as given in PubChem BioAssay AID1745845 (National Center for Advancing Translational Sciences (NCATS), 2022).
“And” between values parts separate entries of the source, which are not always exact repeats. Equal entries are not always repeated. The campaign covered roughly 360,000 compounds. About 2,600 (0.72%) were called active. The inconclusive results got no clear call from the source; some entries with a clear call stand among them for comparison. The call rests on the fitted dose curve; in most records, active means well fitted inhibition curve with a large enough effect; inconclusive means small, poorly fitted or top-dose-only effect; inactive means no such curve, though single readings can be large or run the other way. Potencies of inconclusive entries are doubtful fits and often do not repeat.

Assay: Primary qHTS for Inhibitors of ATXN expression; further: nearly all actives have a fitted effect of over 55% in size
Conditions: HEK-293 ATXN2-luciferase reporter, luminescence, 24 h; series mostly up to 57 µM
Summary of the method: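 qHTS (up to 57 uM final) was run with 24 h compound exposure of reporter cells at 37 °C. Each well was multiplexed: SteadyGlo luminescence measured ATXN2-luciferase expression after a fluorogenic Gly-Phe-AFC viability readout (25 uM final).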
Potency means the concentration at half of the fitted maximal effect; tags describe the fitted curve by direction and shape.

Compound | Potency
C[C@]12CC[C@H](OS(=O)(=O)O)CC1=CC[C@@H]1[C@@H]2CC[C@]2(C)C(=O)CC[C@@H]12 | inactive
OCCNc1c2c(nc3ccccc13)CCCC2 | inactive
Cc1c(C(=O)c2cccc3ccccc23)c2cccc3c2n1[C@H](CN1CCOCC1)CO3 | inconclusive: 27.3 µM [inhibitor, partial curve] and inconclusive: 28.2 µM [inhibitor, partial curve]
Cc1cccc(Cn2cc(C=O)c3ccccc32)c1 | inconclusive: 15.8 µM [inhibitor, partial curve, poor fit]
COC(=O)C1=C(c2ccc(-c3ccccc3)c(F)c2)C[C@@H]2CC[C@H]1N2C(=O)NCCc1ccccc1 | inconclusive: 31.6 µM [inhibitor, single point]
CCOC(=O)[C@]12Cc3ccccc3[C@H]1N(Cc1ccccc1)C(=O)c1cc(F)c(F)cc12 | inconclusive: 35.5 µM [inhibitor, partial curve, poor fit]
CC(C)C(=O)c1cn(Cc2ccccc2C#N)c2ccccc12 | inactive
CN(C)C(=O)Oc1ccc(OC(=O)N(C)C)cc1 | inactive
Clc1ccc(CO/N=C(\Cn2ccnc2)c2ccc(Cl)cc2Cl)c(Cl)c1 | inconclusive: 35.5 µM [inhibitor, partial curve, poor fit]
O=c1[nH]cnc2nc(-c3ccc(N(CCCl)CCCl)cc3)[nH]c12 | inactive
O=C1NCN(c2ccccc2)C12CCN(C(CCc1ccccc1)c1nnnn1Cc1ccccc1)CC2 (centres undefined) | inconclusive: 39.8 µM [inhibitor, single point]
COc1ccc(SCC2CN(C)CCC2c2ccc(F)cc2)cc1 (centres undefined) | inconclusive: 7.52 µM [inhibitor, partial curve, poor fit]
Cc1ccccc1C(=O)N1Cc2cnnn2-c2ccccc2C1C#N (centres undefined) | inactive
CC(=O)OC1CC(OC2C(O)CC(OC3C(O)CC(OC4CCC5(C)C(CCC6C5CCC5(C)C(C7=CC(=O)OC7)CCC65O)C4)OC3C)OC2C)OC(C)C1OC1OC(CO)C(O)C(O)C1O (centres undefined) | active: 0.0075 µM
FC(F)(F)c1ccccc1CN1CCN(Cc2ccccc2)CC1 | inconclusive: 39.8 µM [inhibitor, partial curve, poor fit]
COc1cccc(C(c2nnnn2C2CCCCC2)N2CCC3(CC2)C(=O)NCN3c2ccccc2)c1OC (centres undefined) | inconclusive: 39.8 µM [inhibitor, single point]
CC(C)CNc1c2c(nc3ccccc13)CCC2 | inconclusive: 37.7 µM [inhibitor, single point]
C=C1C(=O)[C@@]23C[C@H]4[C@@H]5[C@@]6(C)CCC[C@@]57[C@@H]2[C@@H](O)[C@@H]1C[C@H]3[C@H]7N4C6 | inconclusive: 39.8 µM [inhibitor, single point]
O=C1CN=C(c2cccc(Br)c2)c2cc(Br)ccc2N1 | inconclusive: 39.8 µM [inhibitor, single point]
CCOc1cc(CNC(C)C(O)c2ccccc2)cc(Cl)c1OCC (centres undefined) | inactive

Compound | Potency
N#Cc1ccc2nc(-c3ccc(CN4CCC(n5c(=O)[nH]c6ccccc65)CC4)cc3)c(-c3ccccc3)nc2c1 | inconclusive: 7.94 µM [inhibitor, partial curve, poor fit]
O=c1[nH]c(=S)[nH]c(O)c1N=Nc1ccc2c(c1)OCCO2 | inconclusive: 15.8 µM [inhibitor, partial curve]
COC(=O)C1=C(c2ccc(F)cc2OCc2ccccc2)C[C@@H]2CC[C@H]1N2C(=O)NC1CCN(Cc2ccccc2)CC1 | inconclusive: 25.1 µM [inhibitor, single point]
CCOc1ccc(C2C(C#N)=C(N)Oc3c2c(=O)oc2ccccc32)cc1 (centres undefined) | inactive
CCOC(=O)[C@]12Cc3cc(C)ccc3[C@H]1N(C)C(=O)c1cc(OC)ccc12 | inconclusive: 39.8 µM [inhibitor, single point]
C=C(CC1CC(O)[C@]2(C)OC3CC4OC5C[C@]6(C)O[C@]7(C)CCC8OC9C[C@]%10(C)OC%11C(C)=CC(=O)OC%11CC%10OC9C[C@@H](C)C8OC7CC6O[C@]5(C)C/C=C\C4OC3CC2O1)C(=O)O (some centres undefined) | inactive
Cc1ccsc1C(=O)C1CCCN(Cc2sc(N(C)C)nc2Cl)C1 (centres undefined) | inconclusive: 10 µM [inhibitor, partial curve]
Clc1cc(Cl)cc(NC2=NCCS2)c1 | inconclusive: 8.91 µM [inhibitor, partial curve, poor fit]
C=C1C(=O)OC2CC3(C)OC3CCC(C)=CC(OC(C)=O)C12 (centres undefined) | inconclusive: 37.7 µM [inhibitor, single point]
C=CCn1c(O)c(N=Nc2c(C)n(C)n(-c3ccccc3)c2=O)c(=O)[nH]c1=S | inconclusive: 28.2 µM [inhibitor, single point]
CCC(=O)N1N=C(c2c(O)n(CCc3ccccc3)c(=O)[nH]c2=O)CC1c1ccc(OC)c(OC)c1 (centres undefined) | inconclusive: 39.8 µM [inhibitor, single point]
CC(=O)OC1C(O)C2=C3C4(C)C1C(C)(C)C(=O)CC4C3(O)C(OC(C)=O)C1(CC1C)C2=O (centres undefined) | inconclusive: 39.8 µM [inhibitor, single point]
Cc1ccc(N2Cc3ccccc3C2=N)cc1[N+](=O)[O-] | inactive
CC(=O)NC(Cc1ccc(N(CCCl)CCCl)cc1)C(=O)O (centres undefined) | inconclusive: 15.8 µM [inhibitor, partial curve, poor fit]
COc1ccc2c(c1)c(CCN)c(C)n2Cc1ccccc1 | inconclusive: 28.2 µM [inhibitor, single point]
Oc1cc(Cl)c(Cl)c(Cl)c1Cl | inconclusive: 14.1 µM [inhibitor, partial curve]
CCOC(=O)c1c(-n2c(C)cc(C=C3C(=O)NC(=S)NC3=O)c2C)sc2c1CCCC2 | active: 20 µM
COC(=O)OCC12CCC(O1)C1(C)C(=O)OCC21 (centres undefined) | inactive
COc1ccc(C(c2nnnn2C2CCCCC2)N2CCC3(CC2)C(=O)NCN3c2ccccc2)cc1 (centres undefined) | inconclusive: 35.5 µM [inhibitor, single point]
